Experimental data as given in article PMC11166463.
Results are given in words; binding and its absence hold for the method and conditions named. Binding seen in cells or lysates may run through a third protein. Some binding calls cover weakened binding; strength is not graded here. For some assays here: Tags and fused reporters may be left off the sequences shown.

By UniProt entry, the sequences of proteins in these tests, tags left out.
UniProt P51531: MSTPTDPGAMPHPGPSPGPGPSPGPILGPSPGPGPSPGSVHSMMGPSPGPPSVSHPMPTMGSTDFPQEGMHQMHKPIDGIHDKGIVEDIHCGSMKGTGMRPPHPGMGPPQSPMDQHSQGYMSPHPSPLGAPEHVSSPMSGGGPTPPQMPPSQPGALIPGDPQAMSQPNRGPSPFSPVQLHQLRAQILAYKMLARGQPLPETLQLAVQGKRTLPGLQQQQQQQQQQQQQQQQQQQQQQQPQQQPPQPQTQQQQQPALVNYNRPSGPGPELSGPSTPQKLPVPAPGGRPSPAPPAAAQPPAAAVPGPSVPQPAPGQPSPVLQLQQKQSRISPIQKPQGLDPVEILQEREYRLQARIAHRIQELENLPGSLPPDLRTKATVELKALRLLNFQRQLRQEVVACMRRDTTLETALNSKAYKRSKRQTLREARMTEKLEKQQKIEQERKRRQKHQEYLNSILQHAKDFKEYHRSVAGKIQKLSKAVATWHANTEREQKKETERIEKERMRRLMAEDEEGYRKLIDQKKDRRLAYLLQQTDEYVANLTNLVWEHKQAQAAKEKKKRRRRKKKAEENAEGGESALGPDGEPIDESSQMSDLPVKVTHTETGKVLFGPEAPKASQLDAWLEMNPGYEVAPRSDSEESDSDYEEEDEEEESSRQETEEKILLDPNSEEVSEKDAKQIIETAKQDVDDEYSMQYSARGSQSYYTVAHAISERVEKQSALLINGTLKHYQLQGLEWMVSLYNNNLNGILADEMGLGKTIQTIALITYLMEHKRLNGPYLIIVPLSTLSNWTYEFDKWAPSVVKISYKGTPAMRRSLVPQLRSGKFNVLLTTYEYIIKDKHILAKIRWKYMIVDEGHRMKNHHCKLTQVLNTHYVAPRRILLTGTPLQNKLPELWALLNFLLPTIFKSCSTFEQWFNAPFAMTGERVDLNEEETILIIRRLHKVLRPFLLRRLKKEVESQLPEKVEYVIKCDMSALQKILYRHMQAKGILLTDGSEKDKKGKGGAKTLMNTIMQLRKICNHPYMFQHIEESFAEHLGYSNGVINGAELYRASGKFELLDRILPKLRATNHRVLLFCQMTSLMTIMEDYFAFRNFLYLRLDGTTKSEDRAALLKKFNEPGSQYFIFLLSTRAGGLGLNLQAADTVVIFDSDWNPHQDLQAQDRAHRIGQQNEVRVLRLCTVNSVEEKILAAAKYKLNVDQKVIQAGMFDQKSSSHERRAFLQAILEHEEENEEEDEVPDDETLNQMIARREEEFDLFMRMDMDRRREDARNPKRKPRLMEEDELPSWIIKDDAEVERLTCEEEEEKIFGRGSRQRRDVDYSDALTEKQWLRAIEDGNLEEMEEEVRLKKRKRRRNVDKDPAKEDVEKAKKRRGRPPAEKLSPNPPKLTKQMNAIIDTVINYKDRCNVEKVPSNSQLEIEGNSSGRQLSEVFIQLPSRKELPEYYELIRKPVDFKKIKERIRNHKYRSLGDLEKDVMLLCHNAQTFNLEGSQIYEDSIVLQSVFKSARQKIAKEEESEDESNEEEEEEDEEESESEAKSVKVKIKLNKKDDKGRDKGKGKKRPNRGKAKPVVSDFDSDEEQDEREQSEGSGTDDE
UniProt P51532: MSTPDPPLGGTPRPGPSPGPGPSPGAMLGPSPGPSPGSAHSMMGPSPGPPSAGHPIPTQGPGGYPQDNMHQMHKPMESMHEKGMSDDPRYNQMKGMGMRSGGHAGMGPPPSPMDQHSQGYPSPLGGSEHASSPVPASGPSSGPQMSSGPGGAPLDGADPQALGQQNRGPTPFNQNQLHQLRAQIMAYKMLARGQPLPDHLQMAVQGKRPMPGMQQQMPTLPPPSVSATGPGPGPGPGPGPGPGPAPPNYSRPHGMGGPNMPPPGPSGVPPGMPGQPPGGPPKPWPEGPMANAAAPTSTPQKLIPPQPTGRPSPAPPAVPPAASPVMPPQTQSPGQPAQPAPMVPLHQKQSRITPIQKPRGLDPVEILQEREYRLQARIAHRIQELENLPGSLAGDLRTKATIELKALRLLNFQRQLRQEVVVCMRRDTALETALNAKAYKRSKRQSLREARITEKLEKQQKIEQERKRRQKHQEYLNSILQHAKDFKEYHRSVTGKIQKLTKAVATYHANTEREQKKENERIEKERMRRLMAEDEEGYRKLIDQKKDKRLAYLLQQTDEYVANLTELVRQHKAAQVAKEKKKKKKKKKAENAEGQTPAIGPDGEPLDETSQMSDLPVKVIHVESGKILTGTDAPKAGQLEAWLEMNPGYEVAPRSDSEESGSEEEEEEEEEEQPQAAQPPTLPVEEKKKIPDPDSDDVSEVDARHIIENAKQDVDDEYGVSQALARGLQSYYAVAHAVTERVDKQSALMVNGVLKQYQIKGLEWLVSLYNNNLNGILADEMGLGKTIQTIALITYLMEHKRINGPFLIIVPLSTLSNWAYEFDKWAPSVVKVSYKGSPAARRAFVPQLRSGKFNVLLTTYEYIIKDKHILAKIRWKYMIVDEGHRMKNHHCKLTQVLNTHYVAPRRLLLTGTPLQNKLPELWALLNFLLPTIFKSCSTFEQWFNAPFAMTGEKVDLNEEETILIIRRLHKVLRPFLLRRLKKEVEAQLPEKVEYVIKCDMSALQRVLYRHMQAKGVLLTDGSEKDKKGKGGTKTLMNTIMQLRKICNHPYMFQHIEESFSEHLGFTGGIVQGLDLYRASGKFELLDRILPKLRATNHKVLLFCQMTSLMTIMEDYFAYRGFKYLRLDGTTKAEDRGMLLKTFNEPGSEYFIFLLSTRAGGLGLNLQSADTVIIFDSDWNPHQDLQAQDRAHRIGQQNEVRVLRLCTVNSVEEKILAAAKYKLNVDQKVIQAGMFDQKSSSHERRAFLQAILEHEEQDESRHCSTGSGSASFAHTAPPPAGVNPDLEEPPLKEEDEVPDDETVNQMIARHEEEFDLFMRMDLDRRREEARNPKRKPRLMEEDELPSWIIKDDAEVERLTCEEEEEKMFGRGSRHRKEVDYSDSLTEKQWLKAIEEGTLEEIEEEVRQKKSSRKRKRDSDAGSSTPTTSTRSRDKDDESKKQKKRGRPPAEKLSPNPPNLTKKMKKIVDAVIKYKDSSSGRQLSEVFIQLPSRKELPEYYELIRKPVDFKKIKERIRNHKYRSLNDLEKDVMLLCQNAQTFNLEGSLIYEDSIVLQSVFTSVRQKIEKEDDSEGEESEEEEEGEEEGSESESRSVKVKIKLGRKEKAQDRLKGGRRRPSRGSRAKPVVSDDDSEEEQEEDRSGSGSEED
UniProt Q8TAQ2: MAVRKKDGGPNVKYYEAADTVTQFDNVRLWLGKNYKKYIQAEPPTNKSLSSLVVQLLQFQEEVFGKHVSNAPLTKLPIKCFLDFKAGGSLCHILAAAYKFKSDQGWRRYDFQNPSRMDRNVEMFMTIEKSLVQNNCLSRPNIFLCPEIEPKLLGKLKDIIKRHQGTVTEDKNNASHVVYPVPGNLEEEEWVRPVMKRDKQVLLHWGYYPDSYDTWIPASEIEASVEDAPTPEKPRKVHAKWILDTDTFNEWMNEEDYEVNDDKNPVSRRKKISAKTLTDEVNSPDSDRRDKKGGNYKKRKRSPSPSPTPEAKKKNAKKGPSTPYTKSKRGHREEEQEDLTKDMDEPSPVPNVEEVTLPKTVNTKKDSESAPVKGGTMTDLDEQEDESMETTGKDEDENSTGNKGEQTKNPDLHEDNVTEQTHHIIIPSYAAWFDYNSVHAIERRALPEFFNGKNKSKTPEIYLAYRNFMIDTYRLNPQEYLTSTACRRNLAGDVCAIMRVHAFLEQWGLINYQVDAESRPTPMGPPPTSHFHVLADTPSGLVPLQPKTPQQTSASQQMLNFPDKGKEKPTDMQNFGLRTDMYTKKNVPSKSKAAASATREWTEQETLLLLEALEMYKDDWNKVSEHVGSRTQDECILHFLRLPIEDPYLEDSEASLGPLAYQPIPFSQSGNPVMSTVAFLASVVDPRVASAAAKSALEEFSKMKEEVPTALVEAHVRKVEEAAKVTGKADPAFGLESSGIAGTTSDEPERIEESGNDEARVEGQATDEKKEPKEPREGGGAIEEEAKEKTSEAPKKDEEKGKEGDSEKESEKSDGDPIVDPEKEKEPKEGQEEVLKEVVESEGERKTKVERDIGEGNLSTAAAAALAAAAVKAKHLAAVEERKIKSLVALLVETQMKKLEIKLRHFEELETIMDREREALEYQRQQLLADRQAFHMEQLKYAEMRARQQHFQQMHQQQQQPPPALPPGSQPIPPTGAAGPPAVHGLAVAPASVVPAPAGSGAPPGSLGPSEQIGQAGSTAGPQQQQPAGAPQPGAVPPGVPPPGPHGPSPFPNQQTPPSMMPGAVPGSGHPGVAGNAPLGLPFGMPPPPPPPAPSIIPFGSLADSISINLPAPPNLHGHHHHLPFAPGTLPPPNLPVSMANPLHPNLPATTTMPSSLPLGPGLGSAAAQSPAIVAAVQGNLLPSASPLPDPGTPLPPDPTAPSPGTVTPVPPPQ
UniProt P53350: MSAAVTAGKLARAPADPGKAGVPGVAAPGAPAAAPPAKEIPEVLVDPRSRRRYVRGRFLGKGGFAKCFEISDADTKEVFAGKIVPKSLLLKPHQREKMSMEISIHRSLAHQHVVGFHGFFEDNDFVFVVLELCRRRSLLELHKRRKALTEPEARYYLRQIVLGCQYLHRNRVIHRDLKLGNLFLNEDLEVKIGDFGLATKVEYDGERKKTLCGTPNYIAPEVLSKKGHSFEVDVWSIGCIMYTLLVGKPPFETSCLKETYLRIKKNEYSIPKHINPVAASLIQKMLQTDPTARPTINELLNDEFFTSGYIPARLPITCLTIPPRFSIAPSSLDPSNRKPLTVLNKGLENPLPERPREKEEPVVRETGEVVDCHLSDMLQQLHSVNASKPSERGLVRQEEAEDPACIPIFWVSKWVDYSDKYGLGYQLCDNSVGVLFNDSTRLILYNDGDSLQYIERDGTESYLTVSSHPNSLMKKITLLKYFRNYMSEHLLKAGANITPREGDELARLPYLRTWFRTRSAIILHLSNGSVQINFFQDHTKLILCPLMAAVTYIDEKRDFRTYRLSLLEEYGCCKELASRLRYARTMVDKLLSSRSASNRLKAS
UniProt Q96GD4: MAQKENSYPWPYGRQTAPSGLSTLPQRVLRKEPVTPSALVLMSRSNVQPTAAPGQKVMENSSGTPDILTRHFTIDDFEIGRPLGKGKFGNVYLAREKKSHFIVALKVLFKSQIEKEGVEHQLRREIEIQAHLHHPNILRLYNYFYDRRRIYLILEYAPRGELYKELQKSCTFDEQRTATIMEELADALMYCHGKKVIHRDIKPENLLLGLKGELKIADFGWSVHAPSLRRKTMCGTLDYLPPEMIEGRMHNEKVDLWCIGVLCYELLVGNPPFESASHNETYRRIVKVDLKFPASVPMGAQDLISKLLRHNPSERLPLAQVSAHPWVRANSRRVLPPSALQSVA
UniProt Q8N4N8: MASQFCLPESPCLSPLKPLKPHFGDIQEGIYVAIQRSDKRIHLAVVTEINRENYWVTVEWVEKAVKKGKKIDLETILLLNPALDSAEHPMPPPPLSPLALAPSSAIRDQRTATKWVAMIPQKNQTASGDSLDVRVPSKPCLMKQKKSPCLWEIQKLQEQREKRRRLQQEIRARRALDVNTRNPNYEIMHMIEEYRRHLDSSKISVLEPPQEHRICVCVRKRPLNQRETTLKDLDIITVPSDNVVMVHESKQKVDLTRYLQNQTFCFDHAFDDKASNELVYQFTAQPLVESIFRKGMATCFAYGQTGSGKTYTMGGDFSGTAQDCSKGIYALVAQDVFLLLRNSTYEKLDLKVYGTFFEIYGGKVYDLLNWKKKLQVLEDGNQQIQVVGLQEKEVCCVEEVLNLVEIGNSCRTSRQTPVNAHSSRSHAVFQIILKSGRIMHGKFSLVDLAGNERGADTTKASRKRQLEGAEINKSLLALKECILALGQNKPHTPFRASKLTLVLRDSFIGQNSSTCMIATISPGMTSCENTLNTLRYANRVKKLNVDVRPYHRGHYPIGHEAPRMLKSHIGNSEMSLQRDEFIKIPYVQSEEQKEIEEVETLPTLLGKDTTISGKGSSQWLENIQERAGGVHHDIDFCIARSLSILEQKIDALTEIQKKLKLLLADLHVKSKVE

Legend:
[1] = molecular target: Brm (SMARCA2), endogenous in U2OS cells (human (endogenous in U2OS)) (UniProt P51531); assay: co-IP; endogenous proteins from U2OS lysate (20 mM Tris-HCl pH 7.5, 150 mM NaCl, 5 mM EDTA, 5 mM EGTA, 1% Triton X-100), antibody overnight at 4°C, protein A/G agarose beads, four washes, western blot
[2] = molecular target: Brg1 (SMARCA4), endogenous in U2OS cells (human (endogenous in U2OS)) (UniProt P51532); assay: as above
GST–DPF3a (human) = molecular target: T1, GST–DPF3a (human) (UniProt Q92784); assay: pull-down; GST recombinant proteins immobilised on glutathione-conjugated sepharose beads, incubated with lysates of mock or transfected U2OS cells at 4°C for 2 h, western blot; only the target purified
T1 sequence: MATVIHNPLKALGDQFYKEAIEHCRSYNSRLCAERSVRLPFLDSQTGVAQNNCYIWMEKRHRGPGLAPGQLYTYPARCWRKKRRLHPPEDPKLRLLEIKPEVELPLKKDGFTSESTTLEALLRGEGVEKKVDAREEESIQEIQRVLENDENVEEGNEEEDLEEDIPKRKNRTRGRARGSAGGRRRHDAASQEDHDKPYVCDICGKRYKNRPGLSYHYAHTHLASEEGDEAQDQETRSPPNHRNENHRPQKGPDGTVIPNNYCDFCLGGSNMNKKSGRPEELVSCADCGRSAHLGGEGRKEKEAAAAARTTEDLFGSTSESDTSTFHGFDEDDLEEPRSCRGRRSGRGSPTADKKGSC

GST–DPF3b (human) = GST–DPF3b (human) (UniProt Q92784); assay: as above

binding [1] | binding [2] | binding (GST–DPF3a (human)) | binding (GST–DPF3b (human)) | Substance
binds | binds |  |  | BAF170 (SMARCC2), endogenous in U2OS cells (from UniProt Q8TAQ2 1-1214)
 |  | binds | binds | FLAG–PLK1 (from UniProt P53350 1-603)
 |  | binds | binds | HA–Aurora B (from UniProt Q96GD4 1-344)
 |  | no binding | no binding | Myc–KIF2B (from UniProt Q8N4N8 1-673)
